Molecular target: T1, insulin (Homo sapiens, UniProt P01308)
T1 construct: Effect on Physiological Function of Vasopressin and Insulin as Peptides; purchased Novo Ltd
Assay: Physiological function of insulin treated with Yoshixol, blood sugar
Format: in vivo
Conditions: rabbit, insulin 5 units/Kg treated with Yoshixol 4 μl; untreated insulin maximal fall 45 mg/dl
Method: Each vasopressin and insulin has a physiological effect such as a rise of blood pressure and a fall of sugar level in blood respectively. An effect of Yoshixol on these physiological functions was investigated and compared by injection of each hormone without or with treatment with Yoshixol in rabbit in vivo. When vasopressin (100 ng/Kg, Sigma Co. Saint Louis, Mo., USA) without treatment with Yoshixol was injected intravenously, blood pressure increased by 15-25 mmHg so that this increased level was maintained for about 25 minutes. But, vasopressin (100 ng/Kg) treated with Yoshixol (4 μl) caused a increase in blood pressure of only about 5 mmHg (referred FIG. 6).

C=C1CC(C)(C)C=CC1=O [Yoshixol, 4,4-dimethyl-6-methylene-2-cyclohexen-1-one]
change in blood sugar level: 12 mg/dL

Source: US6710090B2, “Inhibitory or blocking agents of molecular generating and/or inducing functions” (priority 1994, dated 2004)
